Measurements from the supplement of paper PMC11876631.
± gives the standard deviation of the averaged measurements. Laboratory Escherichia coli strains with one amino-acid change in an essential protein, pooled on minimal glucose agar with carbenicillin or gentamicin at twice the control MIC (plus kanamycin and chloramphenicol for the plasmids), 48 h. Fold change of barcode share against drug-free plates; higher = less susceptible. Active = above 20 in both replicates (the paper's putatively resistant). '<' = one read or none on drug, '>' = one read or none on a drug-free plate. Shares are relative, so most strains fall below 1 when a few take over. Listed are strains with at least 15 reads on both drug-free plates, and hits; most hits rest on fewer reference reads. Replicate rank correlation about 0.5. Edits are read from barcodes.

B1: adk L35Q (protein)
chain: MRIILLGAPGAGKGTQAQFIMEKYGIPQISTGDMQRAAVKSGSELGKQAKDIMDAGKLVTDELVIALVKERIAQEDCRNGFLLDGFPRTIPQADAMKEAGINVDYVLEFDVPDELIVDRIVGRRVHAPSGRVYHVKFNPPKVEGKDDVTGEELTTRKDDQEETVRKRLVEYHQMTAPLIGYYSKEAEAGNTKYAKVDGTKPVAEVRADLEKILG
B2: adk F109W (protein)
chain: MRIILLGAPGAGKGTQAQFIMEKYGIPQISTGDMLRAAVKSGSELGKQAKDIMDAGKLVTDELVIALVKERIAQEDCRNGFLLDGFPRTIPQADAMKEAGINVDYVLEWDVPDELIVDRIVGRRVHAPSGRVYHVKFNPPKVEGKDDVTGEELTTRKDDQEETVRKRLVEYHQMTAPLIGYYSKEAEAGNTKYAKVDGTKPVAEVRADLEKILG
B3: adk F109A (protein)
chain: MRIILLGAPGAGKGTQAQFIMEKYGIPQISTGDMLRAAVKSGSELGKQAKDIMDAGKLVTDELVIALVKERIAQEDCRNGFLLDGFPRTIPQADAMKEAGINVDYVLEADVPDELIVDRIVGRRVHAPSGRVYHVKFNPPKVEGKDDVTGEELTTRKDDQEETVRKRLVEYHQMTAPLIGYYSKEAEAGNTKYAKVDGTKPVAEVRADLEKILG
B4: adk L35P (protein)
chain: MRIILLGAPGAGKGTQAQFIMEKYGIPQISTGDMPRAAVKSGSELGKQAKDIMDAGKLVTDELVIALVKERIAQEDCRNGFLLDGFPRTIPQADAMKEAGINVDYVLEFDVPDELIVDRIVGRRVHAPSGRVYHVKFNPPKVEGKDDVTGEELTTRKDDQEETVRKRLVEYHQMTAPLIGYYSKEAEAGNTKYAKVDGTKPVAEVRADLEKILG
B5: dnaC V135D (protein)
chain: MKNVGDLMQRLQKMMPAHIKPAFKTGEELLAWQKEQGAIRSAALERENRAMKMQRTFNRSGIRPLHQNCSFENYRVECEGQMNALSKARQYVEEFDGNIASFIFSGKPGTGKNHLAAAICNELLLRGKSVLIITDADIMSAMKDTFRNSGTSEEQLLNDLSNVDLLVIDEIGVQTESKYEKVIINQIVDRRSSSKRPTGMLTNSNMEEMTKLLGERVMDRMRLGNSLWVIFNWDSYRSRVTGKEY
B6: dnaC L7P (protein)
chain: MKNVGDPMQRLQKMMPAHIKPAFKTGEELLAWQKEQGAIRSAALERENRAMKMQRTFNRSGIRPLHQNCSFENYRVECEGQMNALSKARQYVEEFDGNIASFIFSGKPGTGKNHLAAAICNELLLRGKSVLIITVADIMSAMKDTFRNSGTSEEQLLNDLSNVDLLVIDEIGVQTESKYEKVIINQIVDRRSSSKRPTGMLTNSNMEEMTKLLGERVMDRMRLGNSLWVIFNWDSYRSRVTGKEY
B7: dnaC L7Q (protein)
chain: MKNVGDQMQRLQKMMPAHIKPAFKTGEELLAWQKEQGAIRSAALERENRAMKMQRTFNRSGIRPLHQNCSFENYRVECEGQMNALSKARQYVEEFDGNIASFIFSGKPGTGKNHLAAAICNELLLRGKSVLIITVADIMSAMKDTFRNSGTSEEQLLNDLSNVDLLVIDEIGVQTESKYEKVIINQIVDRRSSSKRPTGMLTNSNMEEMTKLLGERVMDRMRLGNSLWVIFNWDSYRSRVTGKEY
B8: dnaC L7W (protein)
chain: MKNVGDWMQRLQKMMPAHIKPAFKTGEELLAWQKEQGAIRSAALERENRAMKMQRTFNRSGIRPLHQNCSFENYRVECEGQMNALSKARQYVEEFDGNIASFIFSGKPGTGKNHLAAAICNELLLRGKSVLIITVADIMSAMKDTFRNSGTSEEQLLNDLSNVDLLVIDEIGVQTESKYEKVIINQIVDRRSSSKRPTGMLTNSNMEEMTKLLGERVMDRMRLGNSLWVIFNWDSYRSRVTGKEY
B9: dnaC L7D (protein)
chain: MKNVGDDMQRLQKMMPAHIKPAFKTGEELLAWQKEQGAIRSAALERENRAMKMQRTFNRSGIRPLHQNCSFENYRVECEGQMNALSKARQYVEEFDGNIASFIFSGKPGTGKNHLAAAICNELLLRGKSVLIITVADIMSAMKDTFRNSGTSEEQLLNDLSNVDLLVIDEIGVQTESKYEKVIINQIVDRRSSSKRPTGMLTNSNMEEMTKLLGERVMDRMRLGNSLWVIFNWDSYRSRVTGKEY

target: Escherichia coli (laboratory strain); experiment: barcode share on antibiotic plates over drug-free plates; higher = less susceptible; details: antibiotic: carbenicillin; 2× MIC (3.1 µg/mL)
Procedure: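 A pool of E. coli strains, each edited to carry one amino-acid change in an essential protein, was grown for 48 h on minimal glucose agar with or without antibiotic; strain barcodes were sequenced; mean of two replicates.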

Protein	fold change of barcode share
B1	0.493 ± 0.28
B2	3.77 ± 0.87
B3	0.333 ± 0.063
B4	0.304 ± 0.19
B5	0.136 ± 0.042
B6	0.209 ± 0.082
B7	0.254 ± 0.11
B8	0.595 ± 0.29
B9	0.275 ± 0.075

same assay, conditions: antibiotic: gentamicin; 2× MIC (MIC 0.45 µg/mL)

Protein	fold change of barcode share
B1	0.0105 ± 0.00098
B2	0.0656 ± 0.072
B3	0.00538 ± 0.006
B4	< 0.00582
B5	< 0.0119
B6	< 0.0156
B7	< 0.00732
B8	< 0.0137
